The list shows a part of the results. At the low end of the ranking the order means little.

In the assay the target is SIX1-Q177R homeodomain (UniProt Q15475). The assay can be described thus: universal protein binding microarray. The settings on record: Universal all-10-mer PBM (8x60K, AMADID 030236), 300 nM GST-tagged protein, Alexa Fluor 488 anti-GST; buffer, salt, pH and temperature not stated; high values mean tight binding; most listed sequences are background and not binding sites; double strand, one strand shown.
As for AAATTAAA, the binding signal is -0.214 E-score.

As for AAGAGGTA, the binding signal was found to be 0.0511 E-score.

Regarding CGGCCCGC, the binding signal is -0.0779 E-score.

For CTCGCTCA, the binding signal is -0.153 E-score.

Regarding ACTAGAAT, the binding signal is -0.0628 E-score.

For the sequence ATCTGTAA, the binding signal is -0.165 E-score.

With ATAGCGCA, the binding signal was -0.13 E-score.

Turning to TGCCGCCA, the binding signal is -0.168 E-score.

For TAGCATGA, the binding signal is -0.107 E-score.

Take CAATTAAG: the binding signal was -0.062 E-score.

As to GATGTTTA, the binding signal is -0.107 E-score.

Turning to TCAAATCA, the binding signal is -0.0792 E-score.

As for ATGGACCA, the binding signal was found to be 0.0656 E-score.

Take AGGCGTTG: the binding signal is -0.0962 E-score.

In the case of ACGTATAC, the binding signal was -0.0509 E-score.

CATATACA: the binding signal is 0.144 E-score.

In the case of TGGTGTAA, the binding signal was determined as 0.486 E-score.

GACAGAAA: the binding signal was -0.193 E-score.

For the sequence AGTCAGTA, the binding signal was 0.00856 E-score.

As for CCAAATCC, the binding signal was -0.0948 E-score.

Regarding CGTCAGTA, the binding signal was -0.0889 E-score.

As to ATGACTGC, the binding signal is -0.3 E-score.

As to ACACAACT, the binding signal worked out at 0.187 E-score.

Regarding AGGTAACT, the binding signal is -0.145 E-score.

With ACATCGGA, the binding signal was -0.0158 E-score.

For the sequence CTGTGAGA, the binding signal was -0.0128 E-score.

Regarding GCGCGCAC, the binding signal came to 0.115 E-score.

ACCGGATG: the binding signal was determined as 0.0831 E-score.

For CAGTCAAG, the binding signal was -0.259 E-score.

Take AACACAAT: the binding signal was found to be 0.15 E-score.

Take CCTGACAA: the binding signal was -0.136 E-score.

CTCTCATC: the binding signal is -0.13 E-score.

For GGCCTTAA, the binding signal is -0.276 E-score.

Consider GCGTACAA, for which the binding signal is 0.073 E-score.

Regarding CATGTTCC, the binding signal is -0.159 E-score.

Consider CCGGACTA, for which the binding signal stood at 0.0815 E-score.

With CTATAGAG, the binding signal is -0.142 E-score.

Regarding ATGACGAC, the binding signal is -0.0804 E-score.

As to CACGAGCC, the binding signal turned out to be 0.0542 E-score.

Take CCTCCACG: the binding signal is -0.087 E-score.

Regarding CGACCCCA, the binding signal came out at 0.233 E-score.

On to GCGGATGA, for which the binding signal is -0.188 E-score.

AACGATTG: the binding signal was -0.24 E-score.

Take AACTATCC: the binding signal is -0.177 E-score.

AGGCCACA: the binding signal is -0.0931 E-score.

With GAGTTTCC, the binding signal was -0.278 E-score.

Take GAACCATA: the binding signal was -0.0786 E-score.

As for ACTGGAAG, the binding signal was -0.00318 E-score.

As to GTCTAAGA, the binding signal was -0.0265 E-score.

As for GCGACCGA, the binding signal was -0.158 E-score.

On to CGGGTAGA, for which the binding signal stood at 0.0568 E-score.

Turning to CACTCTAA, the binding signal was determined as 0.0759 E-score.

With ACGGAGCT, the binding signal was -0.139 E-score.

For the sequence CACACCAA, the binding signal was 0.38 E-score.

Consider GATCCACA, for which the binding signal came to 0.157 E-score.

Take GGACTCCC: the binding signal is 0.121 E-score.

As to GAAATCCC, the binding signal is -0.0848 E-score.

As for CTGACCCC, the binding signal came out at 0.283 E-score.

As for CACAAATC, the binding signal came out at 0.0318 E-score.

As to ATAAAAAA, the binding signal was -0.176 E-score.

Turning to CCTCTTTC, the binding signal is -0.122 E-score.

Take CCCCTACC: the binding signal was 0.237 E-score.

For the sequence TAAGGCAA, the binding signal is -0.156 E-score.

Regarding ACTCCCGC, the binding signal is 0.253 E-score.

In the case of ATTGGAAA, the binding signal is -0.235 E-score.

Consider CTAGATCC, for which the binding signal is -0.0304 E-score.

With ATCGATTC, the binding signal was -0.00258 E-score.

Regarding AAGGAAGA, the binding signal is -0.0719 E-score.

CTTGTTCC: the binding signal is -0.0869 E-score.

In the case of ATAGGAGG, the binding signal is -0.027 E-score.

Regarding CGTAAAGC, the binding signal is -0.185 E-score.

In the case of GACACGTA, the binding signal is 0.39 E-score.

Take CGTTGCTC: the binding signal was -0.0275 E-score.

Turning to GTGGATGA, the binding signal was -0.00284 E-score.

On to GGGATTCA, for which the binding signal came out at 0.128 E-score.

With CCAACACA, the binding signal was found to be 0.163 E-score.

For the sequence ATGTTGAA, the binding signal is -0.105 E-score.

For AGAAGAAT, the binding signal is -0.0734 E-score.

For ACTAGCAG, the binding signal was -0.123 E-score.

As for GCTGTAAC, the binding signal was -0.0955 E-score.

AGTGTGAA: the binding signal is 0.276 E-score.

Consider CCGTGGCA, for which the binding signal amounted to 0.0338 E-score.

For AGTGTGAC, the binding signal is 0.359 E-score.

CTTTCAGC: the binding signal is 0.00261 E-score.

As for CAGTGAAC, the binding signal turned out to be 0.0325 E-score.

For the sequence AGTGACCC, the binding signal amounted to 0.234 E-score.

Consider CTTATGTA, for which the binding signal was -0.161 E-score.

Regarding GGGTTGCA, the binding signal came to 0.121 E-score.

Regarding AATCGCTG, the binding signal is -0.306 E-score.

In the case of TGCATCCA, the binding signal is -0.181 E-score.

For AGCGTGTA, the binding signal was 0.419 E-score.

In the case of TAAGGATA, the binding signal is -0.0122 E-score.

For AAATTTAA, the binding signal was -0.178 E-score.

In the case of AAGGGTTA, the binding signal turned out to be 0.0235 E-score.

As to GCTCGCGA, the binding signal is -0.141 E-score.

For the sequence AGGTTGAG, the binding signal was 0.0636 E-score.

On to TACTTTCA, for which the binding signal is -0.111 E-score.

For CTGCACGA, the binding signal was found to be 0.0614 E-score.

With GTTTTGTA, the binding signal is 0.0496 E-score.

Turning to AGCACGGC, the binding signal was 0.102 E-score.

As to GATTCAAA, the binding signal was -0.208 E-score.

Consider CCTCTGCC, for which the binding signal turned out to be 0.00146 E-score.

With AGCGGCTG, the binding signal was -0.238 E-score.

As to GGGGTTAA, the binding signal was found to be 0.198 E-score.

On to TATAAAAA, for which the binding signal was -0.024 E-score.

Consider AACTAGCA, for which the binding signal turned out to be 0.022 E-score.

On to AGTCTATG, for which the binding signal was -0.303 E-score.

On to GGCCGCCA, for which the binding signal is -0.247 E-score.

As for GGCCTGGA, the binding signal is -0.0463 E-score.

For the sequence AAATGAGC, the binding signal is -0.331 E-score.

For GCTTAGCC, the binding signal is -0.0946 E-score.

Take GCGAGCGC: the binding signal is -0.0369 E-score.

Consider ATACCGAT, for which the binding signal was -0.0217 E-score.

In the case of AGCGGGAT, the binding signal is 0.083 E-score.

AGAGGACT: the binding signal was -0.141 E-score.

In the case of CTGTCGGC, the binding signal was -0.134 E-score.

For GAAAGCTC, the binding signal came to 0.0463 E-score.

CGGGCTAC: the binding signal came to 0.0741 E-score.

With TCGTGGAA, the binding signal was -0.104 E-score.

With AAAACATT, the binding signal was -0.319 E-score.

On to GCTAGTCC, for which the binding signal was -0.18 E-score.

Take CTTGCTGC: the binding signal was -0.113 E-score.

With CTTAAGAA, the binding signal is -0.191 E-score.

On to AGAGATAT, for which the binding signal is -0.0602 E-score.

With AAGGGGAT, the binding signal is 0.0724 E-score.

As to ACTGAACC, the binding signal was found to be 0.0163 E-score.

On to CAAGTGCG, for which the binding signal is -0.00796 E-score.

Take ATATCCAG: the binding signal was -0.0292 E-score.

Take GGAAAACA: the binding signal stood at 0.0194 E-score.

Consider AAGCTTTA, for which the binding signal was -0.106 E-score.

On to ATTCTGTC, for which the binding signal is -0.209 E-score.

In the case of CTGTTGCC, the binding signal was -0.215 E-score.

Take AATCTGTA: the binding signal is -0.0288 E-score.

On to TAAGCGGA, for which the binding signal was -0.112 E-score.

Turning to CCTCCCAA, the binding signal is -0.0632 E-score.

As for CGCTTACG, the binding signal is -0.146 E-score.

As to AGTAGGAA, the binding signal is -0.127 E-score.

Turning to TAACAGAA, the binding signal was -0.213 E-score.

In the case of GCGGAACA, the binding signal was 0.149 E-score.

Turning to GCAGTACC, the binding signal was -0.0392 E-score.

In the case of CGTCGAAC, the binding signal was -0.151 E-score.

For ATCGTCAT, the binding signal was -0.117 E-score.

Turning to CACGAGGA, the binding signal was found to be 0.114 E-score.

Regarding TAATGGTA, the binding signal is 0.119 E-score.

On to GCACTAAC, for which the binding signal is -0.00999 E-score.

In the case of GAAGCTGA, the binding signal was -0.184 E-score.

For AACTGTGT, the binding signal worked out at 0.159 E-score.

Regarding AACGATCA, the binding signal is -0.133 E-score.

Turning to AATCGCCC, the binding signal was -0.201 E-score.

AGAGGGTA: the binding signal is 0.146 E-score.

On to AGGTCAGG, for which the binding signal was -0.00249 E-score.

As to CACAGTAG, the binding signal is -0.0728 E-score.

For CGTCCGGA, the binding signal is -0.0376 E-score.

With CTCGTGCC, the binding signal is -0.0971 E-score.

GGAAGTCA: the binding signal was -0.133 E-score.

As for AGAATCTA, the binding signal is -0.169 E-score.

Take CAAGGATA: the binding signal was determined as 0.184 E-score.

As to CCACTCGG, the binding signal was -0.0024 E-score.

For CGGTTTAG, the binding signal is -0.0771 E-score.

Consider CTTAGTAA, for which the binding signal is -0.125 E-score.

For the sequence CGGATGAC, the binding signal is -0.0421 E-score.

Take AAAAAGAG: the binding signal was -0.145 E-score.

Turning to TCGGCGAA, the binding signal is -0.0558 E-score.

Regarding ATTTGCGA, the binding signal was -0.145 E-score.

In the case of CCCCGTAA, the binding signal is -0.0615 E-score.

GTTGGTAA: the binding signal was 0.103 E-score.

With GACGCTCA, the binding signal was -0.125 E-score.

For AAGCTTAT, the binding signal came to 0.039 E-score.

Regarding CGTAAAAG, the binding signal was -0.242 E-score.

Consider CGGAAAGA, for which the binding signal was -0.142 E-score.

With AGGGAGGA, the binding signal was -0.0377 E-score.

GTCGAAAC: the binding signal came out at 0.182 E-score.
